Data from ChEMBL document CHEMBL4673226, “Development of 5-Aminopyrazole-4-carboxamide-based Bumped-Kinase Inhibitors for Cryptosporidiosis Therapy” (J Med Chem, 2019).
In brackets after ≈: the same amount, converted by molar mass.

Assays:
[1] = Clearance in mouse at 25 mg/kg, po; type: ADME, organism-based; details: in vivo
[2] = Protein binding in mouse plasma by dialysis method
[3] = Solubility in pH 6.5 solution; details: buffer
[4] = Half life in mouse at 25 mg/kg, po; details: in vivo
[5] = Solubility in pH 2.0 solution; details: buffer
in vivo = details: mouse, po, 25 mg/kg
[6] = AUC in mouse at 25 mg/kg, po; type: ADME, organism-based; parameters: dose 25 mg/kg; details: in vivo
[7] = AUC in mouse at 10 mg/kg, po; type: ADME, organism-based; parameters: dose 10 mg/kg; details: in vivo
[8] = Clearance in mouse at 10 mg/kg, po; type: ADME, organism-based; details: in vivo

SMILES | CL/F [1] | PPB [2] | solubility [3] | half-life [4] | solubility [5] | Cmax (in vivo) | AUC [6] | AUC [7] | CL/F [8]
CC(C)(CO)Cn1nc(-c2ccc3nc(OC4CC4)ccc3c2)c(C(N)=O)c1N | 0.1 mL/min | 67% | 100 µM (≈ 39.5 µg/mL) | 196 h | > 100 µM | 1900 nM | 11910 µmol·min/L |  | 
CC(C)(CO)Cn1nc(-c2ccc3cc(OC4CC4)ccc3c2)c(C(N)=O)c1N |  |  | 98 µM (≈ 38.7 µg/mL) |  | 93 µM (≈ 36.7 µg/mL) |  |  | 247.1 µmol·min/L | 2.2 mL/min
